Consider 84 variants from a collection of fitness landscapes (doi:10.1126/science.1257360).

This is one part of the list.

Sequences and labels used below:
B1: PhoQ; a variant is named by its letters at X, in order, P23837 (parent)
chain: MKKLLRLFFPLSLRVRFLLATAAVVLVLSLAYGMVALIGYSVSFDKTTFRLLRGESNLFYTLAKWENNKLHVELPENIDKQSPTMTLIYDENGQLLWAQRDVPWLMKMIQPDWLKSNGFHEIEADVNDTSLLLSGDHSIQQQLQEVREDDDDAEMTHSVAVNVYPATSRMPKLTIVVVDTIPVELKSSYMVWSWFIYVLSANLLLVIPLLWVAAWWSLRPIEALAKEVRELEEHNRELLNPATTRELTSLVRNLNRLLKSERERYDKYRTTLTDLTHSLKTPLXXLQXXLRSLRSEKMSVSDAEPVMLEQISRISQQIGYYLHRASMRGGTLLSRELHPVAPLLDNLTSALNKVYQRKGVNISLDISPEISFVGEQNDFVEVMGNVLDNACKYCLEFVEISARQTDEHLYIVVEDDGPGIPLSKREVIFDRGQRVDTLRPGQGVGLAVAREITEQYEGKIVAGESMLGGARMEVIFGRQHSAPKDE

The assay covers variants of B1. Briefly: enrichment ratio after two sorts for PhoP signalling (ratio (wild type AVST 3.29)); higher = more functional. The settings on record: with PhoP (E. coli).
WNAA: the enrichment ratio was no more than 0.25. In the case of NDEY it was no more than 0.25; in that of IWYE, no more than 0.25; in that of SCDL, no more than 0.25. As for SQRT, the enrichment ratio was no more than 0.25.

As to PPSP, the enrichment ratio was no more than 0.25. On to PTHE, for which the enrichment ratio was no more than 0.25.

As for SNDV, the enrichment ratio is no more than 0.25. Take HSYT: the enrichment ratio is no more than 0.25. In the case of KMTA it was 0.275. Regarding YRHN, the enrichment ratio is no more than 0.25. Regarding IHND, the enrichment ratio is no more than 0.25. On to GDYN, for which the enrichment ratio was no more than 0.25. In the case of NKTA it was no more than 0.25; in that of YGHA, no more than 0.25; in that of YGNN, no more than 0.25. In the case of EKMD it was no more than 0.25; in that of VTAI, 1.25; in that of SVLR, 2.79.

With QHCM, the enrichment ratio is no more than 0.25.

On to TGDS, for which the enrichment ratio is no more than 0.25. With HGMR, the enrichment ratio was no more than 0.25. In the case of SPVQ, the enrichment ratio is no more than 0.25. In the case of IMHN, the enrichment ratio was no more than 0.25. For KCNP, the enrichment ratio is no more than 0.25. Take EAHR: the enrichment ratio was no more than 0.25. For the variant NSQI, the enrichment ratio was no more than 0.25. Take FVKT: the enrichment ratio is no more than 0.25. Take THFP: the enrichment ratio is no more than 0.25.

For the variant NCMT, the enrichment ratio was no more than 0.25. In the case of FFII it was no more than 0.25; in that of IYVG, no more than 0.25; in that of SRNP, no more than 0.25. Consider QNKY, for which the enrichment ratio was no more than 0.25.

In the case of EQIM, the enrichment ratio is no more than 0.25. With NIWE, the enrichment ratio is no more than 0.25.

As to GPKS, the enrichment ratio was no more than 0.25. SHNA: the enrichment ratio is 3.35.

On to GVVM, for which the enrichment ratio was 4.42. As to VMPI, the enrichment ratio is no more than 0.25.

For NTQI, the enrichment ratio is no more than 0.25. With AWDL, the enrichment ratio is no more than 0.25. In the case of ENQQ it was no more than 0.25. On to HVYT, for which the enrichment ratio was no more than 0.25. On to RCPR, for which the enrichment ratio was no more than 0.25.

Turning to YTNH, the enrichment ratio is no more than 0.25.

Turning to QDTF, the enrichment ratio is no more than 0.25. With GKTH, the enrichment ratio was no more than 0.25. Regarding SPLP, the enrichment ratio is no more than 0.25. Take IPQR: the enrichment ratio was no more than 0.25.

EGHG: the enrichment ratio was no more than 0.25. Turning to ERSM, the enrichment ratio is no more than 0.25. ECDW: the enrichment ratio was no more than 0.25. In the case of DYRC it was no more than 0.25; in that of HDPV, no more than 0.25. Turning to SRMN, the enrichment ratio was no more than 0.25. In the case of NQYG it was no more than 0.25. Consider WGND, for which the enrichment ratio is no more than 0.25. Regarding DTNY, the enrichment ratio was no more than 0.25. As to RDFD, the enrichment ratio is no more than 0.25.

With YREP, the enrichment ratio was no more than 0.25. Take MTDH: the enrichment ratio is no more than 0.25. In the case of YLFI, the enrichment ratio was no more than 0.25. In the case of SSIA, the enrichment ratio worked out at 10.8. For the variant CRSR, the enrichment ratio is no more than 0.25.

Regarding SPWS, the enrichment ratio is no more than 0.25. In the case of YNYA it was no more than 0.25; in that of PLWS, 0.411. Regarding SWCR, the enrichment ratio was no more than 0.25.

As for WREH, the enrichment ratio is no more than 0.25. Take AYGW: the enrichment ratio is no more than 0.25. For the variant VGCG, the enrichment ratio is no more than 0.25. On to PRIV, for which the enrichment ratio was no more than 0.25.

For NAHP, the enrichment ratio is no more than 0.25. For the variant AMLK, the enrichment ratio was found to be 5.12. With QTTA, the enrichment ratio was no more than 0.25. With PVFE, the enrichment ratio was no more than 0.25. In the case of QQNW it was no more than 0.25. Consider WFRE, for which the enrichment ratio was no more than 0.25. With HSVP, the enrichment ratio is no more than 0.25. In the case of HNFN it was no more than 0.25; in that of WNTR, no more than 0.25; in that of HHFS, no more than 0.25. As for DWYV, the enrichment ratio is no more than 0.25.
